# Measured values from the supplement of paper PMC3334620.
# Over roughly 33,000 sequences, “E-score (-0.5 to 0.5)” has its median near -0.016; the highest 2% begin near 0.32. The list shows a part of the results.
# Target: T1, Stp1 (UniProt B3LFK1)
# T1 sequence: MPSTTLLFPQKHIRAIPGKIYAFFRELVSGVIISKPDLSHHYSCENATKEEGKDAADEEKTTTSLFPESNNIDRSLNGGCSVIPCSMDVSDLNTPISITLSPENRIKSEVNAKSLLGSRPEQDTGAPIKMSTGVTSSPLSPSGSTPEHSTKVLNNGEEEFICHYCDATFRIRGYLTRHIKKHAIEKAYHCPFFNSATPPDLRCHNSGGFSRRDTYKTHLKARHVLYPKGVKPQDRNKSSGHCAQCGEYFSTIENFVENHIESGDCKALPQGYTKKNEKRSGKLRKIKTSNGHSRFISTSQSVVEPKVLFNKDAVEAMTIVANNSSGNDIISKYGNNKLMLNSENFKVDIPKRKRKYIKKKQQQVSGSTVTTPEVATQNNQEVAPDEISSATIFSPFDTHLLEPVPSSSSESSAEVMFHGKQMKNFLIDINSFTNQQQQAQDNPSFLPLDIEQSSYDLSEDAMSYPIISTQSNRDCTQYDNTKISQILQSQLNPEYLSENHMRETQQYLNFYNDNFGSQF
# Assay: PBM E-score (8-mer binding enrichment) (E-score (-0.5 to 0.5)); higher = stronger / more preferred TF binding; most listed sequences are background and not binding sites
# Settings: protein concentration: 200 nM; construct: GST-full length
# Method: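 Universal 'all 10-mer' protein binding microarrays (Agilent AMADID 015681) probed with GST-tagged S. cerevisiae TFs (full-length or DBD) made by in vitro transcription/translation (PURExpress), about 100-200 nM. Bound TF was detected with fluorescent anti-GST. Each ungapped 8-mer (which stands for itself and its reverse complement) is scored by the PBM enrichment score (E-score), a modified Wilcoxon-Mann-Whitney statistic from -0.5 to +0.5, computed with the Universal PBM Analysis Suite. Scale: above 0.35 generally sequence-specific binding.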
row,Sequence,PBM E-score
1,GACATTGA,-0.0419
2,CCATCCAG,-0.217
3,CTCGCGGA,-0.0275
4,GGATCCTA,-0.101
5,CTAACGAG,-0.057
6,CCTGAACG,0.0107
7,GATGCAGA,-0.0503
8,AGGCCCCA,-0.18
9,CCAACCGA,-0.146
10,ACAAAGGT,-0.00097
11,ACAAACGT,-0.0516
12,ACCCCTAA,-0.132
13,CGAGCGCC,0.219
14,CGAGGACC,-0.137
15,AGCTGAGG,-0.195
16,CCGGTTCG,-0.324
17,ACACACAA,0.182
18,CGCCCGGA,-0.107
19,GGTTCCAC,-0.197
20,CACTGCAA,0.174
21,ACGTCGCT,-0.207
22,CCATAAGG,-0.0531

row,Sequence,PBM E-score
1,TAAGGTCA,-0.15
2,AATCGGCG,0.28
3,GTTCAACA,0.0457
4,AAACACCA,-0.0168
5,TGAATCAA,0.183
6,ATCATCTC,-0.0585
7,ACGTAGAA,0.165
8,CTAGGTCA,-0.368
9,ATCGCTGG,-0.172
10,ACGGCCCA,0.333
11,ATTGGGCA,-0.0403
12,AGTTTCCG,0.1
13,CAGTCTAG,-0.269
14,CCCATCAA,0.00916
15,TGCTGCCA,-0.0707
16,CACCTTCC,-0.0396
17,ACTGACGC,0.0121
18,GAGAACAA,0.145
19,ATTCCACA,0.203
20,AAAGTCTA,-0.18
21,GCGAAGGA,0.0735
22,AGGACTTG,-0.245

row,Sequence,PBM E-score
1,GCCCCAGC,-0.0464
2,AAGTTCCC,-0.163
3,GTATAGGA,-0.108
4,CAGTGCTA,-0.321
5,CTTCCTGC,-0.191
6,CCATGCGG,0.242
7,CTATAACC,-0.236
8,AGTTATTA,0.136
9,AAATTAAG,-0.00684
10,ATCTCTAC,-0.0286
11,CACTGCCG,0.336
12,GACTTTAA,-0.142
13,AGCCTGTG,-0.189
14,ACATCGGA,-0.0218
15,GTCATGCA,0.0946
16,CCCCCACG,-0.183
17,CAGTCACC,-0.248
18,GAAGGGCA,0.231
19,AAAATACA,0.0755
20,CGAATAGC,-0.0392
21,GTCCGTTA,-0.165
22,ACCTTGTG,0.0315

row,Sequence,PBM E-score
1,ATAACAAA,0.259
2,AGACAGGG,-0.0469
3,ACAACTTA,-0.0708
4,ATGGAACC,-0.134
5,ACTGCGCC,0.265
6,AAGTAGCA,0.0981
7,CCTGTCAG,-0.142
8,ACGGGTCT,-0.0113
9,AGGATTTC,-0.0126
10,GCGTGCAC,0.0305
11,CATTTCCC,0.159
12,ATAATGCC,0.325
13,TACTCTGA,0.105
14,CGTCCTAA,0.0169
15,CATAACGG,-0.0232
16,CGCGTTAC,0.132
17,GACCTAGA,-0.148
18,GTTAAAAC,-0.0479
19,TTCTAAAA,0.12
20,CCTACTCG,0.0409
